SMILES strings stand for the structures. The campaign covered roughly 310,000 compounds. About 2,200 (0.71%) showed an effect of 50% or more. The effect is printed as a negative number. The list shows a part of the results.

In the test the target is human ether-à-go-go-related gene (hERG) potassium channel (human, UniProt Q12809). As to the kind of experiment: primary screen, population patch clamp on CHO cells stably expressing hERG.
Chain of human ether-à-go-go-related gene (hERG) potassium channel (Q12809 whole entry, looked up): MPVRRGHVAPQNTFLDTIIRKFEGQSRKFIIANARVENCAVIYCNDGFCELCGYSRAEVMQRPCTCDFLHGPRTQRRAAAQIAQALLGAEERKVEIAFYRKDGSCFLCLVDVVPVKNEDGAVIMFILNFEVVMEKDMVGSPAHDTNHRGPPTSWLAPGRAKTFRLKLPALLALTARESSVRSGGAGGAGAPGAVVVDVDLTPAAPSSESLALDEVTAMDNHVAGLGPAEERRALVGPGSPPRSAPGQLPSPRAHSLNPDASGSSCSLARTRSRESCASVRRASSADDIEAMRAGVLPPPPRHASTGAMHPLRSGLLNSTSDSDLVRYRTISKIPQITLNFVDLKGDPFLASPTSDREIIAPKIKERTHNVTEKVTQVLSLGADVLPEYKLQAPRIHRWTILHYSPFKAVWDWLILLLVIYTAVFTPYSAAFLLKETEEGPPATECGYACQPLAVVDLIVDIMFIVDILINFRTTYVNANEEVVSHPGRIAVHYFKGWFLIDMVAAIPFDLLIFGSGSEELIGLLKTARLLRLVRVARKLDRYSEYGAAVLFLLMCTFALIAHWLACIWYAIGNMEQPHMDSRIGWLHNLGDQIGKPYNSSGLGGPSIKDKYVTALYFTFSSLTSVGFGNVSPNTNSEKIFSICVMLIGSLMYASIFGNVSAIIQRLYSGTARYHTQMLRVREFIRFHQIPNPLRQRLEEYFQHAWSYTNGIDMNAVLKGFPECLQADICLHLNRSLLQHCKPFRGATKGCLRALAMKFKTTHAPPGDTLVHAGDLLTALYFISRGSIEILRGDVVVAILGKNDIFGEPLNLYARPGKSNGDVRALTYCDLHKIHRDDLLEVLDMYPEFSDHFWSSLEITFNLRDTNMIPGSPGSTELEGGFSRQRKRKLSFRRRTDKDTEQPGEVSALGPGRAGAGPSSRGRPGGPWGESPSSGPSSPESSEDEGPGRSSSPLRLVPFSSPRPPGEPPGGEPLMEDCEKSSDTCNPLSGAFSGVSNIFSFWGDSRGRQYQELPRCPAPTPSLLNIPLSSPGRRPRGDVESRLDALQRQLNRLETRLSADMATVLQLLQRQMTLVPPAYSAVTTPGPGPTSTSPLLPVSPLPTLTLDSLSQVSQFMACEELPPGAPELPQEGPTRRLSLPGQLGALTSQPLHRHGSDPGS
With `Cc1ccc2nc(N(CCCN(C)C)C(=O)c3ccc(S(=O)(=O)N(C)C)cc3)sc2c1.Cl`, the “hERG current change (%, negative = inhibition) at 1uM” value is given as -5.7%.
The same measure for `CN(Cc1ccccc1)c1nc2c(c(=O)[nH]c(=O)n2C)n1CCSc1nc2ccccc2[nH]1`: -4.98%; for `O=C(NNC(=O)c1ccc([N+](=O)[O-])cc1)c1ccncc1`: 1.31%.
The same measure for `O=c1[nH]c(SCc2ccc([N+](=O)[O-])cc2)nc2[nH]ncc12`: -4.94%.
As to `CCC(C)(C)NC(=O)CN(Cc1ccco1)C(=O)CCC(=O)Nc1nccs1`, the “hERG current change (%, negative = inhibition) at 1uM” value is on record as 12.8%.
Take `COC(=O)c1ccc(S(=O)(=O)N2CCc3ccccc32)cc1`: the “hERG current change (%, negative = inhibition) at 1uM” value is 11.2%.
The value for `CC(=O)Nc1ccc(NC(=O)C(C)OC(=O)C2(c3ccccc3F)CCCC2)cc1` (centres unmarked) was 12.3%; that for `CC(C)c1cc(N2CCC(=O)NC2=O)cc(C(=O)O)c1O` was 24.5%; that for `CC(C)(C)OC(=O)N1CCC(C(=O)Nc2ccc3c(c2)CCC3)CC1` was -4.39%.
The value for `COC(=O)c1ccc(C2/C(=C(\O)c3ccc(OC)c(C)c3)C(=O)C(=O)N2c2cc(C)on2)cc1` (centres unmarked) was 1.53%; that for `O=C(CC1Sc2ccccc2NC1=O)Nc1cccc(-c2nnc3n2CCCCC3)c1` (centres unmarked) was 0.624%.
Regarding `CCN1CCC2(CCN(Cc3cn[nH]c3-c3ccc(OC)c(F)c3)C2)C1` (centres unmarked), the “hERG current change (%, negative = inhibition) at 1uM” value is reported as 16.8%.
The value for `CC(=O)N1c2ccc(S(=O)(=O)N3CCC(C(=O)N4CCN(c5ccc(Cl)cc5)CC4)CC3)cc2CC1C` (centres unmarked) was -7.4%; that for `COc1ccc(-c2cc(C(F)(F)F)n3nc(N)nc3n2)cc1` was -1.3%; that for `CN(C)[C@@H]1C(=O)C(C(N)=O)=C(O)[C@@]2(O)C(=O)C3=C(O)c4c(O)cccc4[C@@](C)(O)C3[C@H](O)C12.Cl` (some centres unmarked) was 5.46%.
On to `C/C=C/C(=O)OCC(=O)Nc1ccc(F)cc1Cl`, for which the “hERG current change (%, negative = inhibition) at 1uM” value was 0.796%.
For `CCCCOC(=O)Cn1c(=N)n(CCN2CCOCC2)c2ccccc21.Cl`, the “hERG current change (%, negative = inhibition) at 1uM” value is listed as -17.7%.
The same measure for `COc1ccc(NC(=S)NCc2cccs2)c(OC)c1`: -4.33%; for `CCOC(=O)c1c(NC(=S)Nc2ccccc2)sc2c1CCN(C)C2`: -62.8%.
The same measure for `Cc1ccc(C(=O)C(C)OC(=O)c2n[nH]c(=O)c3ccccc23)cc1` (centres unmarked): 10.3%; for `Cc1nn(CCOc2ccccc2)c(=O)n1-c1c(F)cccc1F`: 4.49%; for `CCOC(=O)c1cc(-c2ccc(F)cc2)n(CC(=O)NC(C)CC)c1C` (centres unmarked): 9.56%.
The value for `Cc1cc(=O)oc2cc(NC(=O)c3ccccc3Cl)ccc12` was 18.3%.
As for `Cc1cc2c(OCC(O)CNCc3ccco3)cccc2[nH]1` (centres unmarked), the “hERG current change (%, negative = inhibition) at 1uM” value is 17.2%.
The value for `CCOC(=O)c1c(C)[nH]c(C)c1S(=O)(=O)N(C)CC(=O)Nc1ccccc1OC` was -39.3%; that for `Cc1ccc(/C(N)=N/OC(=O)Cc2ccccc2)cc1` was 11.4%.
As for `COc1ccc(C2C(C#N)=C(N)Oc3c2c(C)nn3-c2ccccc2)cc1Cn1nc(C)c([N+](=O)[O-])c1C` (centres unmarked), the “hERG current change (%, negative = inhibition) at 1uM” value was 6.57%.
The same measure for `COc1cccc(N2C(=O)C(CC(=O)Nc3ccccc3)N(C3CCCCC3)C2=O)c1` (centres unmarked): -2.9%.
As to `COc1cccc(NC(=O)COC(=O)c2c(C)nn(-c3ccccc3)c2C)c1`, the “hERG current change (%, negative = inhibition) at 1uM” value was 0.942%.
The same measure for `CC(C)C(NC(=O)c1ccccc1)c1nnc(SCC(=O)Nc2nccs2)n1C` (centres unmarked): 15.7%; for `COc1ccc(Cl)cc1S(=O)(=O)NC1CC(C)(C)NC(C)(C)C1`: 11.7%; for `O=P(O)(CP(=O)(c1ccccc1)c1ccccc1)c1ccccc1`: 13.7%.
`COc1ccc(NC(=O)CN(C)C(=O)c2cn(-c3ccccc3)nc2-c2ccc(Cl)cc2)cc1`: the “hERG current change (%, negative = inhibition) at 1uM” value turned out to be 13.2%.
The value for `COc1ccc(OC)c(S(=O)(=O)Nc2ccccc2C(F)(F)F)c1` was 2.15%.
The value for `Cn1c(=O)c2[nH]c(C3CCCC3)nc2n(C)c1=O` was 16.1%; that for `O=C(CCN1CCN(Cc2ccccc2)CC1)NNC(=O)Nc1cccc(C(F)(F)F)c1` was 2.84%.
For `CCOc1cc(C)c(Cl)cc1S(=O)(=O)n1nnc2ccccc21`, the “hERG current change (%, negative = inhibition) at 1uM” value amounted to 16%.
On to `CC(=O)Nc1ccc(NC(=O)C2CCCN(c3nnc(-n4cccc4)s3)C2)cc1` (centres unmarked), for which the “hERG current change (%, negative = inhibition) at 1uM” value was 8.99%.
With `CC(C)CC(COCc1ccc(Cl)cc1)N1CCN(C(=O)c2ccc(Cl)cc2Cl)CCC1=O` (centres unmarked), the “hERG current change (%, negative = inhibition) at 1uM” value is given as 3.31%.
The same measure for `C=CCN(Cc1ccc(OC)c(OC)c1)C(=O)N1CCOCC1`: -0.0138%.
The value for `CCc1ccccc1-n1c(SCC(=O)N2CCCC2)nnc1-c1ccccn1` was -3.57%.
As for `CC(=O)c1cn(CC(=O)Nc2ccccc2F)c2ccccc12`, the “hERG current change (%, negative = inhibition) at 1uM” value stood at 7.87%.
The same measure for `O=C(NCc1ccccc1)c1ccc(Cl)cc1`: 1.35%.
Turning to `COc1ccc(/C=C(\NC(=O)c2ccc(Cl)cc2)C(=O)NCCCn2ccnc2)cc1OC`, the “hERG current change (%, negative = inhibition) at 1uM” value was found to be 9.45%.
With `COc1ccc(S(=O)(=O)N2CCC(C(=O)NCc3cccnc3)CC2)cc1OC`, the “hERG current change (%, negative = inhibition) at 1uM” value came to 12.1%.
The same measure for `COC(=O)c1c(C)oc2c1cc(NS(=O)(=O)c1cccs1)c1ccccc12`: 3.8%; for `COc1ccc(C(=O)O/N=C(\N)Cc2cccs2)cc1OC`: 3.38%; for `Cc1c(N)cc(C(=O)N2CCOCC2)cc1[N+](=O)[O-]`: 17.3%.
On to `O=C(NCc1ccccc1)C(=O)NCC1COc2ccccc2O1` (centres unmarked), for which the “hERG current change (%, negative = inhibition) at 1uM” value turned out to be 3.38%.
The value for `CCCCn1c(N)c(N(CC(C)C)C(=O)CN2C(=O)C3CCCCC3C2=O)c(=O)[nH]c1=O` (centres unmarked) was 8.39%.
For `CCc1ccc(NC(=O)CSc2nc3nc(C)cc(C)n3n2)cc1`, the “hERG current change (%, negative = inhibition) at 1uM” value was -1.15%.
The same measure for `CCOC(=O)c1c(OCCO)nn(-c2ccccc2)c1N`: 13%.
In the case of `COc1ccc(CCc2[nH+]c(C)ccc2O)cc1.[Cl-]`, the “hERG current change (%, negative = inhibition) at 1uM” value is recorded as 16.4%.
The same measure for `Cn1c(=O)oc2cc(S(=O)(=O)Nc3cccc(F)c3)ccc21`: 11.6%.
The value for `Cc1cccc(COCCN2CCN(S(=O)(=O)c3ccccc3)CCC2=O)c1` was 3.43%; that for `COC(=O)[C@@]1(Cc2ccc(F)cc2)[C@H]2c3cc(C(=O)N(C)C)[nH]c3C[C@H]2CN1C(=O)c1ccccc1` was 17.4%.
Turning to `CCN(CC)CCCN=C(C)c1c(O)n(-c2ccc(C)cc2)c(=O)[nH]c1=O`, the “hERG current change (%, negative = inhibition) at 1uM” value stood at 19.1%.
For the compound `COC(=O)c1cccc([N+](=O)[O-])c1CN1CCCC(C(N)=O)C1` (centres unmarked), the “hERG current change (%, negative = inhibition) at 1uM” value stood at 11%.
The value for `O=C(CSc1nnc(-c2ccc(Cl)cc2)n1-c1ccc(Cl)cc1)N/N=C/c1ccccc1C(=O)O` was 13.4%; that for `Cc1ccn2c(=O)nc(SCC(=O)OCc3ccccc3)nc2c1` was 15.2%; that for `N#CCOc1nc(N2CCOCC2)nc(N2CCOCC2)n1` was 9.71%.
The same measure for `CCN1C(=O)[C@H]2[C@@H](c3ccc(-c4ccccc4)c(OC)c3)N[C@@](Cc3ccccc3)(C(=O)OC)[C@H]2C1=O.O=C(O)C(F)(F)F`: 13.6%.
The value for `CCOc1ccc2ccccc2c1/C=N/NC(=O)c1ccncc1` was 13.4%.
As to `Cc1cccc2c(N=O)c(O)[nH]c12`, the “hERG current change (%, negative = inhibition) at 1uM” value is 16.6%.
With `Cc1cc(N=Nc2ccccc2C)ccc1N`, the “hERG current change (%, negative = inhibition) at 1uM” value was 10.4%.
On to `CCOC(=O)c1[nH]c2ccc(OC)cc2c1NC(=O)CN1CCN(c2ccccn2)CC1`, for which the “hERG current change (%, negative = inhibition) at 1uM” value turned out to be 1.35%.
Consider `O=C(NCCS(=O)(=O)N1CCC2(CC1)OCCO2)c1ccccc1`, for which the “hERG current change (%, negative = inhibition) at 1uM” value worked out at 3.36%.
The value for `Cc1cc(N2CCC(C)CC2)nc(-n2nc(C)cc2C)n1` was -9.09%; that for `O=C(N/N=C/c1cc(Br)cs1)C(O)c1ccccc1` (centres unmarked) was 12.7%.
Turning to `COc1ccc2cc3cc(C(=O)NCCc4ccc(OC)c(OC)c4)oc3nc2c1`, the “hERG current change (%, negative = inhibition) at 1uM” value was 10.8%.
With `O=C(c1cccc(Cl)c1)N1CCC(c2nc3ccccc3[nH]2)CC1`, the “hERG current change (%, negative = inhibition) at 1uM” value was -0.145%.
In the case of `CC(C)(C)C(=O)Nc1nc2ccc(S(C)(=O)=O)cc2s1`, the “hERG current change (%, negative = inhibition) at 1uM” value is listed as 4.4%.
The same measure for `NNC(=O)COc1ccc(F)cc1`: 15.7%; for `CN1C(=O)c2ccc(C(=O)Nc3ccccc3O)cc2C1=O`: 8.08%; for `COc1ccc(N2Cc3cccc(C(=O)N4CCN(C(=O)c5ccco5)CC4)c3C2=O)cc1`: -10.4%.
The same measure for `COC(=O)c1ccccc1N=Nc1c(C)noc1C`: 4.87%; for `C1=C(CCNc2ncnc3nc[nH]c23)CCCC1`: 1.12%; for `O=C1CC(c2cc(Br)ccc2F)c2cc3c(cc2N1)CCC3` (centres unmarked): -8.79%.
On to `NC(=O)c1ccc(N=Cc2ccc([N+](=O)[O-])s2)cc1`, for which the “hERG current change (%, negative = inhibition) at 1uM” value is on record as 14.1%.
The same measure for `CC1CC(N(C(=O)c2ccccc2Cl)c2ccccc2)c2ccccc2N1` (centres unmarked): 15%.
The same measure for `CN(CC(=O)NC1CCCCC1)S(=O)(=O)c1ccc2c(c1)c(=O)n(C)c(=O)n2C`: 9.65%; for `Cc1cc(N/N=C/c2ccccc2F)c2ccccc2n1`: 19.7%.
Consider `C/C(=C\C(=O)c1ccncc1)Nc1ccccc1O`, for which the “hERG current change (%, negative = inhibition) at 1uM” value is reported as -3.63%.
For `COc1cc(C2N(Cc3ccccc3)CCN2Cc2ccccc2)ccc1OC(C)=O`, the “hERG current change (%, negative = inhibition) at 1uM” value is listed as 10.4%.
With `COc1ccc(CN2CCNC(=O)C2CC(=O)N(C)CC2CCOCC2)cc1OC` (centres unmarked), the “hERG current change (%, negative = inhibition) at 1uM” value was 14.7%.
`Cc1ccc(-c2c(C)sc3ncn(CC(=O)N4CCOCC4)c(=O)c23)cc1C`: the “hERG current change (%, negative = inhibition) at 1uM” value is 6.2%.

These data come from article PMC4336329 (PLoS ONE, 2015).
